Measurements: the antibiotic and cytotoxicity screens of Wong et al. (2023)
Some of the results follow.

Each compound was assayed on HSkMC (human skeletal muscle cells) (assay: cytotoxicity call (relative viability < 0.9)). Conditions: 10 µM.

Structure (SMILES) | cytotoxicity call
Cc1noc(C)c1NC(=O)N(C)C[C@H]1Oc2c(NC(=O)Nc3cccc4ccccc34)cccc2C(=O)N([C@H](C)CO)C[C@@H]1C | inactive
C[C@H](CO)N1C[C@H](C)[C@@H](CN(C)Cc2ccncc2)Oc2c(NC(=O)c3ccncc3)cccc2C1=O | inactive
Cc1noc(C)c1S(=O)(=O)N(C)C[C@H]1Oc2ccc(NC(=O)Cn3cnnn3)cc2CC(=O)N([C@@H](C)CO)C[C@H]1C | inactive
C[C@@H]1CCCCO[C@@H](CN(C)S(=O)(=O)c2cccs2)[C@@H](C)CN([C@@H](C)CO)C(=O)c2cc(NS(C)(=O)=O)ccc2O1 | inactive
C[C@@H]1CN([C@@H](C)CO)C(=O)c2cc(NS(=O)(=O)c3cccs3)ccc2O[C@@H](C)CCCCO[C@@H]1CN(C)Cc1ccc(C(F)(F)F)cc1 | inactive
COc1ccc(CN(C)C[C@@H]2OCCCC[C@@H](C)Oc3ccc(NC(=O)C4CCCCC4)cc3C(=O)N([C@H](C)CO)C[C@@H]2C)cc1 | inactive
CC(C)NC(=O)Nc1ccc2c(c1)C(=O)N([C@@H](C)CO)C[C@H](C)[C@H](CN(C)Cc1ccc3c(c1)OCO3)O2 | inactive
CC(C)C[C@@H]1NC(=O)[C@H]2C[C@@H](C(=O)NCCCCCCNC(=O)CS)[C@@H](c3ccc(O)cc3)N2C1=O | inactive
C[C@@H]1CN([C@@H](C)CO)C(=O)c2cccc(NC(=O)Nc3ccc(F)cc3)c2O[C@H]1CN(C)Cc1ccc(C(F)(F)F)cc1 | inactive
O=C(C[C@@H]1C=C[C@@H](NC(=O)CN2CCOCC2)[C@@H](CO)O1)NC1CCC1 | inactive
COc1ccc(NC(=O)Nc2ccc3c(c2)C(=O)N([C@@H](C)CO)C[C@H](C)[C@H](CN(C)C(=O)Cc2ccccc2)OCCCC[C@@H](C)O3)cc1 | inactive
C[C@H]1CN([C@@H](C)CO)C(=O)Cc2cc(NC(=O)c3ccncc3)ccc2O[C@H]1CN(C)S(=O)(=O)c1ccc(Cl)cc1 | inactive
C[C@@H]1CCCCO[C@@H](CN(C)S(C)(=O)=O)[C@@H](C)CN([C@@H](C)CO)C(=O)c2cc(NS(C)(=O)=O)ccc2O1 | inactive
CC1(C)OC2CC3C4CC(F)C5=CC(=O)C=CC5(C)C4(F)C(O)CC3(C)C2(C(=O)CO)O1 (stereo not given) | inactive
COc1ccc(NC(=O)Nc2ccc3c(c2)CC(=O)N([C@@H](C)CO)C[C@H](C)[C@@H](CN(C)Cc2ccc(Oc4ccccc4)cc2)O3)cc1 | inactive
C(=N\c1ccccc1)/c1ccc(Oc2ccccc2)cc1 | inactive
Cc1ccc(S(=O)(=O)Nc2ccc3c(c2)C(=O)N([C@@H](C)CO)C[C@H](C)[C@H](CN(C)Cc2ccncc2)OCCCC[C@H](C)O3)cc1 | inactive
C[C@@H]1CCCCO[C@@H](CN(C)C(=O)NC2CCCCC2)[C@H](C)CN([C@@H](C)CO)C(=O)c2cc(NC(=O)Nc3ccc4c(c3)OCO4)ccc2O1 | inactive
CC(=O)OCCNC(=O)c1cccnc1 | inactive
CCCNC(=O)Nc1ccc2c(c1)C(=O)N(C)C[C@H](OC)[C@H](C)CN(Cc1ccc(-c3ccccn3)cc1)[C@H](C)CO2 | inactive

Structure (SMILES) | cytotoxicity call
Nn1nnc2ccccc21 | inactive
Cc1ccc(S(=O)(=O)Nc2ccc3c(c2)C(=O)N([C@@H](C)CO)C[C@@H](C)[C@@H](CN(C)S(C)(=O)=O)O3)cc1 | inactive
C[C@@H]1CN([C@H](C)CO)C(=O)c2cc(NC(=O)Nc3ccc(C(F)(F)F)cc3)ccc2O[C@@H](C)CCCCO[C@@H]1CN(C)S(=O)(=O)c1ccc(F)cc1 | inactive
C[C@@H]1CCCCO[C@@H](CN(C)C(=O)C2CCCCC2)[C@@H](C)CN([C@@H](C)CO)C(=O)c2cc(NS(=O)(=O)c3ccc(F)cc3)ccc2O1 | inactive
COc1ccccc1O | inactive
C[C@H]1CCCCO[C@@H](CN(C)C(=O)Nc2ccc(C(F)(F)F)cc2)[C@@H](C)CN([C@@H](C)CO)C(=O)c2cc(NC(=O)Nc3ccc(F)cc3)ccc2O1 | inactive
COCCC(=O)NS(=O)(=O)c1ccccc1 | inactive
COc1ccc([C@@H]2CC(=O)c3c(O)cc(O[C@@H]4O[C@H](CO)[C@@H](O)[C@H](O)[C@H]4O[C@@H]4O[C@@H](C)[C@H](O)[C@@H](O)[C@H]4O)cc3O2)cc1O | inactive
C[C@H](N[C@@H](CCc1ccccc1)C(=O)O)C(=O)N1CCC[C@H]1C(=O)O | inactive
C[C@@H]1CCCCO[C@@H](CN(C)Cc2ccccc2)[C@H](C)CN([C@@H](C)CO)C(=O)c2cc(NC(=O)Nc3ccc(C(F)(F)F)cc3)ccc2O1 | inactive
C[C@@H]1CN([C@H](C)CO)C(=O)c2cc(NC(=O)Cc3cn(C)c4ccccc34)ccc2O[C@H]1CN(C)Cc1ccc(Oc2ccccc2)cc1 | inactive
COc1ccc(NC(=O)N(C)C[C@@H]2OCCCC[C@H](C)Oc3ccc(NS(=O)(=O)c4ccc(F)cc4)cc3C(=O)N([C@@H](C)CO)C[C@@H]2C)cc1 | inactive
Cc1n[nH]c(=O)nc1NCCCOC(C)C | inactive
C[C@@H]1CCCCO[C@@H](CN(C)Cc2ccc(Cl)c(Cl)c2)[C@H](C)CN([C@@H](C)CO)C(=O)c2cc(NC(=O)Nc3cccc4ccccc34)ccc2O1 | inactive
Cc1csc(-c2nnc(Nc3ccc(Oc4ncccc4-c4ccnc(N)n4)cc3)c3ccccc23)c1 | active
C[C@H](CO)N1C[C@H](C)[C@H](CN(C)Cc2ccc(-c3ccccc3)cc2)Oc2ccc(NC(=O)Nc3ccccc3)cc2CC1=O | inactive
CCOC(=O)CC1=NNC(=N)SC1 | inactive
N=C(NCCC[C@H](N)C(=O)O)N[C@@H](CCC(=O)O)C(=O)O | inactive
C[C@@H]1CN([C@@H](C)CO)C(=O)c2cccc(NC(=O)NC3CCCCC3)c2O[C@@H]1CN(C)S(=O)(=O)c1cn(C)cn1 | inactive
O=C(NC1CCCCC1)N1c2ccccc2C=Cc2ccccc21 | inactive
